Measurements from the supplement of paper PMC3334620.
Whole data set: some 33,000 sequences, median “E-score (-0.5 to 0.5)” near -0.04, cut for the highest 2% near 0.36. The list shows a part of the results.

molecular target: T1, Hmlalpha2 (UniProt P0CY09); assay: PBM E-score (8-mer binding enrichment) (E-score (-0.5 to 0.5)); higher = stronger / more preferred TF binding; most listed sequences are background and not binding sites; conditions: protein concentration: 200 nM; construct: GST-full length
T1 sequence: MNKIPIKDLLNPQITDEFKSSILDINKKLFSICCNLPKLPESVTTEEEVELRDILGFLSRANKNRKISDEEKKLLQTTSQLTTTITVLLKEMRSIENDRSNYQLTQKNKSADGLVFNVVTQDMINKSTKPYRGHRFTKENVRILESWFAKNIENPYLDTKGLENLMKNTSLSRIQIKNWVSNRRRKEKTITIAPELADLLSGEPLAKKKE
How it was run: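 Detection of bound protein used fluorescent anti-GST, with scans normalised by masliner. The proteins were GST-tagged yeast transcription factors applied at about 100-200 nM to universal all-10-mer Agilent arrays made double-stranded by primer extension. Each ungapped eight-base word, pooled with its reverse complement, was scored with an E-score from the Universal PBM Analysis Suite.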

Sequence | PBM E-score
AATAAATC | -0.0699
GATAAGGC | -0.126
AAAAGGCG | 0.00436
GAGTTGAA | -0.117
CGAAGGCC | -0.313
AGAGCGGG | -0.166
ACCCATCA | -0.0788
AGGGCCCA | -0.239
AACTGGCT | -0.161
ATCGGTGG | -0.314
ATCCGATG | -0.00175
CAGAGCAC | -0.161
GGGGGCAC | -0.315
GATCTGGC | 0.0544
CGCACGCG | -0.0207
GAATGGGC | -0.231
ATTCACAA | 0.232
ACTAAAGG | -0.024
CCCCTTCC | -0.173
GCTAGAGA | -0.17
GAGATGAA | -0.0111
CCGGCGCC | -0.204
AAAATAGG | 0.0818
CGACTCTC | -0.261
GAAAGACC | -0.353

Sequence | PBM E-score
ACGGTTCG | -0.21
AATCATAT | 0.0462
CTGTGTAA | 0.483
TAGGGAAA | -0.0352
CAGGATAC | -0.0887
CTTTCATA | 0.162
GTGACAAC | 0.0482
AAGCCTCC | -0.163
ACGTTCGA | 0.0841
AAAATGTA | 0.258
ATGACCAG | -0.106
AGATGAAC | 0.206
CTTGATTA | -0.00946
AAATTCGG | -0.0282
GGTGGACA | -0.0373
CTATATCA | -0.131
ATAGAGTG | -0.153
CAGGCACG | -0.037
CCCGCTCC | -0.417
AAGGCCGC | -0.0672
AGATTGGC | -0.218
CGGGGTTA | -0.143
GGTTGCGA | -0.0767
AAGTTGCG | 0.0701
ATAGCAAT | 0.118

Sequence | PBM E-score
AATGTTGC | 0.169
CCCAGGGG | -0.247
ACAAGACT | 0.0694
GGTAGCCA | -0.108
AGAGCAGG | -0.0266
TATCGAGA | -0.0709
CTGACCAC | -0.173
GCCAAGAC | -0.161
ATTCGCCA | -0.108
AAAATCTC | 0.0731
CTTCGAGC | -0.117
CATTAAAA | 0.164
ATGCTAAT | 0.167
CGTGATGA | 0.0439
GAGCTTAC | 0.0644
AAGTCGCT | -0.126
CGCCGGGC | -0.299
GGAGGCCC | -0.39
TATTGTAA | 0.318
TCACCTCA | 0.00387
CGGCTCAA | -0.0531
AGGCCTCC | -0.157
ATTGGCTG | -0.141
GGATTCAC | -0.0617
GCTAACCA | -0.16

Sequence | PBM E-score
AGCCCTAG | -0.0567
GACCAAAA | 0.0759
AACTCAGT | -0.0844
GCGGATAA | 0.00496
CCCGGGGC | -0.318
ATGTACAC | 0.43
CACGCGGA | 0.109
GAACCATC | -0.0493
CCCTGACG | -0.351
AAAGCATA | 0.104
ATCTATAA | 0.117
GGGCTCCA | -0.303
CAGGTACA | 0.181
CATATTCC | -0.143
CCACCCAG | -0.23
AACTACAC | 0.42
CCGCCAAA | -0.105
TACACAAA | 0.431
GTATGGAA | -0.205
GATAGTCA | -0.124
CCTGTGAA | 0.0484
GGGGTAGA | -0.0339
GCTCTTAA | -0.00267
AATAGCTA | 0.014
CCGGATAA | -0.137

Sequence | PBM E-score
ATTTTTCG | 0.0941
GGGTTCAA | 0.0465
CTCTCCCA | -0.23
GTTGGAGA | 0.083
ACGGCAGG | -0.291
GTATATGA | 0.17
ATTTACTA | 0.232
CTATTGTC | -0.244
ACGGGAAT | -0.145
ACCAAGTA | 0.156
GATGGAAA | -0.0196
TCCTCTCA | -0.115
GTTGTGAA | 0.226
CTTAGATA | -0.0381
GGGTCTAA | 0.0219
GTCGGGTA | -0.092
ATACCGTA | -0.0794
ATGGCCAT | -0.00733
AATCGCCT | -0.0652
CTGTTCGC | 0.0955
GTTACTAA | 0.237
GCCCACCC | -0.185
CTGGGGTA | -0.118
GGCCTACA | 0.0554
CCGTACAG | -0.0438

Sequence | PBM E-score
CGGGGAAC | 0.00808
AAAATCGC | -0.182
AACGCTCG | -0.0324
CCAAACTC | -0.0887
GATGGGGC | -0.0438
ACCCGCGC | 0.183
CGACCTAC | -0.141
AACAATCA | 0.208
CAATCACA | 0.217
AAACCCAA | 0.0846
ATGAATTC | -0.0161
ATCATAGG | -0.0906
ACCGTAGT | -0.225
CACTTTCC | -0.158
ACCCGAAG | -0.231
GCGTTAGC | 0.222
CAAATTAC | 0.264
GAGACGAC | -0.19
CTTAGGAA | 0.0437
AGGTGTCA | -0.0246
TGTTCAAA | 0.352
GGGTGCGA | -0.161
GTTCAGGA | -0.0739
AAAAATCA | 0.111
CCATACAA | -0.0282

Sequence | PBM E-score
CCGAAAAA | 0.0733
TCAACTAA | 0.147
GACGTTAA | 0.181
AGAGTAAC | -0.0242
ACGATAGG | -0.204
AACTTAGG | 0.0845
GTCTGGCA | -0.318
CGTGTACC | 0.326
CACATACG | 0.0723
ACGCGATA | 0.324
CAGTTGGC | -0.147
GGCCATTA | 0.0102
CGAGGAAC | 0.00528
ATTCTGGA | 0.155
ACTATTAA | 0.165
AGAAATGC | 0.0811
ATTAGTCA | 0.0626
AAGCAGCA | -0.102
GTTGCCAA | 0.0594
AATATCGG | -0.0765
CGGTCTGA | -0.0313
AATCGCAG | -0.0368
TCAGACAA | -0.0193
CAGATAAA | -0.0551
GGGCGATA | -0.245

Sequence | PBM E-score
GTGCCCCA | -0.197
AATTTCTA | 0.189
AAACCCGG | -0.153
ATTGGATG | 0.105
GATCTTTA | 0.131
AGGTCTTC | -0.234
GACCACCA | -0.179
ACCTAGCT | -0.179
AATGGAGT | -0.0239
ATGTCCTG | 0.0247
AAAATCAT | 0.12
CGAACAGA | 0.0105
ACCAAACC | -0.15
GTCGCGAA | -0.0825
ACCGACAT | 0.198
GAGAGCCA | -0.126
CCGGGTTC | -0.0699
TATCCGAA | -0.122
AAGATCAC | -5e-05
CCAGGCTC | -0.141
GCCAGGTA | 0.057
AACTATAC | 0.227
AACGTTAC | 0.15
GAAGATCA | -0.0916
GCGATGCA | -0.214

Sequence | PBM E-score
CCTGGGAG | -0.255
GGGTGACC | -0.126
AAGGGCTA | -0.183
CGAGGATC | -0.124
GACATTCC | -0.0517
CTTGCACC | -0.238
ACGCACAG | 0.167
CACTCATG | -0.084
CCGCCCAC | -0.141
AGGCGCTA | 0.0751
CAAAACAA | 0.151
AGTTCATC | -0.00587
AAGGATGT | 0.159
GGCGGGTA | -0.165
CACCGTTA | 0.104
AGGCTAAA | -0.0131
AAATATTG | 0.0291
CCGGCAAG | -0.103
GTCTATGA | -0.0293
CGTCTCGA | 0.0152
GGCGACAC | -0.041
AATGATTA | 0.132
AAGGATCC | -0.175
GCGTCTTA | 0.00542
GGCTGAAC | -0.147

Sequence | PBM E-score
ATGAAATG | -0.19
CCGACACC | -0.273
AGGAAGTG | -0.115
GTACGTGA | 0.108
ACGATGCC | -0.219
ATCAACAA | 0.306
ATAAGTTG | 0.0554
CTAAAGCC | -0.19
ACGACGTA | 0.308
GCGCAACA | 0.0852
CCGGTAAC | 0.138
AACTACCT | 0.178
ATACGGTG | -0.0688
CGTGTTAG | 0.431
GCATGTTA | 0.464
GAAAGGTC | -0.0765
ACTTGACG | 0.197
ACCCTCTG | -0.174
AAGGCCTA | -0.0727
CTTTGCGA | -0.11
GGTTGATA | 0.0269
AATTGTGT | 0.338
GAGAGGCC | -0.307
CTAGTTTA | 0.0168
CATTTACA | 0.442

Sequence | PBM E-score
CGCGCTTA | 0.21
AAAGTGGA | -0.216
ACTCATAT | -0.0255
AGGACGAG | -0.101
ATACTTTA | 0.244
ATCTCTAG | -0.152
CCGTCCCC | -0.359
CTGCATAC | 0.0722
TAGACAAA | 0.124
CCAGGCCA | -0.322
AATGTTCG | -0.0319
AACTCAAT | -0.0255
AACAATGG | 0.0641
GCGAATAC | 0.163
CGGTACCC | -0.269
CCGCATGC | -0.23
AACTGGCA | -0.107
CCCAGCAG | -0.134
CAAGTTAA | 0.271
TTCCCCAA | -0.0934
ACTATACT | 0.076
CAGCATCA | -0.0056
GCCATTTA | 0.00861
TATTTTGA | 0.0855
TCGTCCAA | -0.0824

Sequence | PBM E-score
CAAAGGCA | 0.0855
GCATGCCA | -0.181
ATGGGAAT | 0.0681
CACGCTTC | 0.0567
CTGTTCAA | 0.0833
AAATAGCT | -0.128
GTGCGCTA | -0.121
CCCATTTC | -0.166
AAACGACT | -0.0906
CTATCATA | -0.0455
GAAGTGAC | 0.0339
CCACATGA | 0.109
CCCAATTA | -0.0735
CGAAGGGC | -0.207
CTCACGTC | -0.193
CGGGACTA | -0.208
GAAACGAA | -0.0129
AAAATATG | 0.0339
ACGTTTAG | 0.198
GCCAATTA | 0.0643
ATGCTTCG | 0.0186
CGTGTGTC | 0.2
ACAGGATC | -0.0729
CGGGCTCC | -0.272
AAATGATC | -0.178

Sequence | PBM E-score
CTACAGGA | 0.118
CAGGACCG | -0.226
GGCCTTAC | -0.0714
AAAGATAA | 0.114
CGGGCGGA | -0.245
GGATGCGA | -0.247
CTTATCAC | 0.033
AGGAAACT | -0.0759
ATTCCATC | -0.0617
ACCCTATA | -0.286
ATGATAGC | 0.166
AAAGCCCA | -0.1
GAAAGTCA | 0.119
AAGAATTA | 0.102
ACCCGGAA | -0.0305
CATCCCCG | -0.276
CTGAAGGC | -0.294
GTCTAGAA | -0.0283
TATTTAGA | 0.28
CAAAATTC | 0.15
ATCTGGTC | -0.0992
TGATGCAA | 0.0282
GACAAACA | 0.136
TACAAGCA | 0.313
CCATTGTA | 0.222

Sequence | PBM E-score
TGCCGACA | -0.0586
AATGCACT | 0.184
CCCGAAAC | -0.0665
ACGTATAT | 0.279
AATTAACG | 0.289
GCGTTAGA | 0.00665
AACGCGAC | 0.284
ATTACCTC | 0.0281
ATGCAAAG | 0.114
GGGCTTCA | -0.101
CAAACGCG | 0.255
ATAGTCAG | 0.047
GCACCAGA | -0.146
AGCCGCAA | -0.353
CCGCTTTC | -0.17
ACAATAAT | 0.113
CGACCTCG | -0.106
ACTGAAGC | 0.0129
CACTCCTG | -0.0169
